# Test results taken from article PMC4336329 (PLoS ONE, 2015).
# The whole screen tested about 310,000 compounds, of which about 2,200 (0.71%) showed an effect of 50% or more. Effects have a minus sign here. The list shows a part of the results.
# Biological target: human ether-à-go-go-related gene (hERG) potassium channel (human, UniProt Q12809)
# Assay: primary screen, population patch clamp on CHO cells stably expressing hERG
# human ether-à-go-go-related gene (hERG) potassium channel, sequence (Q12809 whole entry, looked up): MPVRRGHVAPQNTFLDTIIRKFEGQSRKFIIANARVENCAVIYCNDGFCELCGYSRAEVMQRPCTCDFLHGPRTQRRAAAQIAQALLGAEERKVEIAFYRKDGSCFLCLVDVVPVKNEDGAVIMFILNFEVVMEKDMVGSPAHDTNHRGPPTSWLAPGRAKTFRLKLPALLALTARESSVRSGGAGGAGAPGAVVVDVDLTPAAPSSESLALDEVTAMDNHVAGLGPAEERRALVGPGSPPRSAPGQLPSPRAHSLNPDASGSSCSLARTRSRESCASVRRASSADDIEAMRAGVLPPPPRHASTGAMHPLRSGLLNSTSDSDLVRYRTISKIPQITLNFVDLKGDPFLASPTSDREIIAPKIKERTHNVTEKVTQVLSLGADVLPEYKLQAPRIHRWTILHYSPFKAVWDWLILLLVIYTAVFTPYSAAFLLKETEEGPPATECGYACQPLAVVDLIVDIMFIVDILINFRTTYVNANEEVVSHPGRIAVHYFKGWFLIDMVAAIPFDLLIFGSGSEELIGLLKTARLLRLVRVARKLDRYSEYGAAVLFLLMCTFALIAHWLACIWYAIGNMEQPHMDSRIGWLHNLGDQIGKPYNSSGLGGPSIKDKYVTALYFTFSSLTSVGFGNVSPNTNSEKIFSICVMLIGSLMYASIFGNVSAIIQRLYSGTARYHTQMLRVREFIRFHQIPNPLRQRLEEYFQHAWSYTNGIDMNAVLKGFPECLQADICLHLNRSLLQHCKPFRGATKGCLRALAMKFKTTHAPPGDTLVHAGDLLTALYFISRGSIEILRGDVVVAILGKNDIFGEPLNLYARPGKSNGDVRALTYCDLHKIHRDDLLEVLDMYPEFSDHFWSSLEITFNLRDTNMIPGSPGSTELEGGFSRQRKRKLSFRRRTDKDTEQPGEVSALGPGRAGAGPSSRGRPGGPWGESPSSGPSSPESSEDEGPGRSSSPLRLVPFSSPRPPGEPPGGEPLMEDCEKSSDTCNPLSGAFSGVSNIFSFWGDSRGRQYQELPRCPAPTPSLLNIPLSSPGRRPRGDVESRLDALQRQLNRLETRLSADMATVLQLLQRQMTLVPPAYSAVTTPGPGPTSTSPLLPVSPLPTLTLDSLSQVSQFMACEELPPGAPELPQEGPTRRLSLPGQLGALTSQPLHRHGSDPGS
row,Compound,"hERG current change (%, negative = inhibition) at 1uM [%]"
1,Cc1ccc2nc(C)cc(N/N=C/c3ccc(F)cc3)c2c1,0.285
2,O=C1C=C(c2cccc(Cl)c2O)C[C@@H](c2ccc(F)cc2)C1,4.16
3,O=C(CCn1ccc([N+](=O)[O-])n1)Nc1nccs1,11
4,CC(=O)N1CCN(S(=O)(=O)c2c(F)cc(F)c(Cl)c2F)CC1,0.475
5,O=C(/C=C/c1ccc(Br)o1)NCc1ccccc1,9.85
6,CSCC[C@H](NC(=O)c1nn(C)c(=O)c2ccccc12)c1nc2ccccc2[nH]1,9.95
7,CCc1c(C)nc2c(C)cccc2c1SCCC#N,15.5
8,Cc1cc(C)c2c(=O)cc(C(=O)NCc3ccccc3)oc2c1,5.25
9,O=C(Nc1nc2c(F)cccc2s1)C1CC1,1.11
10,O=c1[nH]c2ccsc2c(=O)n1-c1ccc(F)c(Cl)c1,7.07
11,O=C(COc1ccc(S(=O)(=O)NC2CCCCC2)cc1)NCc1ccccn1,2.1
12,COC(=O)c1cn(NC(=O)c2ccc3c(c2)OCO3)c(=O)c2ccccc12,16.7
13,N#Cc1c(NC(=O)CSc2nnnn2C2CCCC2)sc2c1CCCC2,-1.72
14,CC(=O)C1CCN(Cc2ccccc2)CC1,17.3
15,COc1ccc(Cl)cc1NC(=O)COC(=O)C1CC1,7.38
16,O=C(NCc1ccc(Cl)cc1)C1CCC(=O)N(C2CC2)C1 (centres unmarked),-1.16
17,NC(N)=NS(=O)(=O)c1ccc(NC(=S)NC(=O)/C=C/c2ccco2)cc1,2.78
18,O=C(c1ccccc1)N1CCCC(C(=O)N2CCc3ccccc3C2)C1 (centres unmarked),7.09
19,O=C(CN1C(=O)/C(=C\c2cccc(Cl)c2)Sc2ccccc21)NCCCN1CCOCC1,3.32
20,Cc1ccc(C)c(NC(=S)N2CCC(NC(=O)c3ccccc3)CC2)c1,13.5
21,COc1ccc(N(C)S(=O)(=O)c2ccc(Cl)c(C(=O)NCCc3ccc(Cl)cc3)c2)cc1,-12.4
22,COc1ccc(S(=O)(=O)N2CCSC2c2ccccc2)cc1 (centres unmarked),0.0057
23,Cn1c(=O)cc(SCC(=O)Nc2cccnc2)c2ccccc21,2.11

row,Compound,"hERG current change (%, negative = inhibition) at 1uM [%]"
1,CN(C)c1ccc2c(O)cc(=O)n(C)c2c1,12.2
2,CCC(=NCc1ccco1)c1c(O)n(-c2ccc(OC)cc2)c(=O)[nH]c1=O,4.15
3,C=C(C)C(=O)Nc1cccnc1Oc1ccc(F)cc1F,11.1
4,O=C(Nc1ccccc1)c1cccc(S(=O)(=O)Nc2ccccn2)c1,21.5
5,CCc1ccc(-c2nc(CS(=O)CC(=O)NCCCN3CCC(C)CC3)c(C)o2)cc1 (centres unmarked),9.2
6,COc1cc2c(cc1OC)C(C(=O)N1CCOCC1)C(c1cccs1)N(C)C2=O (centres unmarked),4.23
7,CCCN(C(=O)CSc1nc2ccccc2n1CC)C1CCS(=O)(=O)C1 (centres unmarked),6.33
8,CC1CC(C)(C)CC2(C1)NC(=O)N(CC(=O)N1CCN(S(=O)(=O)c3cccs3)CC1)C2=O (centres unmarked),7.88
9,O=C(Nc1ccc(F)cc1)Nc1cc(S(=O)(=O)N2CCOCC2)ccc1N1CCCC1,-5.8
10,CCN(CC)S(=O)(=O)c1cccc2nsnc12,14.8
11,Cc1ccc(-c2c(C(=O)NC(C)C)oc(=O)c3ccccc23)cc1,1.54
12,CC1Cc2ccccc2N1CC(=O)NCc1ccc2c(c1)OCO2 (centres unmarked),0.915
13,Cc1cccn2c(=O)c3cc(C(=O)NCC4CCCO4)c(=N)n(Cc4ccc(F)cc4)c3nc12 (centres unmarked),-80.4
14,Cc1ccc2oc(=O)c3cnn(CC(=O)Nc4cc(-c5cccc(F)c5)no4)c3c2c1,-6.17
15,O=c1oc(-c2ccccc2F)nc2scc(-c3ccccc3)c12,-13
16,O=[N+]([O-])c1ccc(C2(O)CN(c3ccccc3)C3=[N+]2CCS3)cc1.[Br-] (centres unmarked),-23.1
17,O=C(Nc1ccc(OC(F)(F)F)cc1)c1cnc2n(c1=O)CCS2,-20.1
18,Cc1cc(=O)oc2c(C)c(OCC(=O)N(C)C)ccc12,11.1
19,CC1CN(C(=O)c2cc3c(=O)n4ccccc4nc3n2C)CC(C)O1 (centres unmarked),12
20,O=C(NC1CCCC1)C(c1cccs1)N(C(=O)c1ccco1)c1ccc2c(c1)OCCO2 (centres unmarked),-3.36
21,CC1(C)CC(=O)c2cc(OCC(=O)NCCCN3CCN(c4ccccc4F)CC3)ccc2O1,-26
22,NS(=O)(=O)c1cccc(NC(=O)Nc2ccc(Cl)cc2)c1,-3.34
23,COc1ccc(-c2cc(=O)oc3cc(OC(C)C(=O)NCC4CCC(C(=O)O)CC4)ccc23)cc1 (centres unmarked),12

row,Compound,"hERG current change (%, negative = inhibition) at 1uM [%]"
1,CCC(Sc1nc(C)cc(C)n1)C(=O)Nc1cc(C)on1 (centres unmarked),2.89
2,O/N=C(\c1ccccn1)C1CC1c1ccccc1 (centres unmarked),17.4
3,Cc1ccc(S(=O)(=O)N(C)C)cc1NC(=O)COC(=O)c1ccc2c(c1)OCO2,4.43
4,Cc1nnc(SCC(=O)N2CCN(c3ccccc3)CC2)n1C1CC1,7.46
5,CC(Oc1ccc(Cl)cc1)C(=O)NCC1CCCO1 (centres unmarked),4.74
6,O=C1CCCN1CCCNS(=O)(=O)c1ccccc1,16.7
7,CC(=O)N1c2ccc(S(=O)(=O)N3CCC(C(=O)Nc4cccc(F)c4)CC3)cc2CC1C (centres unmarked),12.9
8,CCC(CC)NC(=O)CSc1ccc(S(=O)(=O)N2CCOCC2)cn1,4.25
9,CCOC(=O)c1ccc(NC(=O)c2nc[nH]c2C(=O)N[C@@H](CC(C)C)C(=O)OC(C)(C)C)cc1,9.16
10,COc1ccccc1C(=O)NC(C)c1ccc(-n2ccnc2)cc1 (centres unmarked),10.9
11,Cn1c(N)cc(-c2ccc(F)cc2)c(C#N)c1=O,1.35
12,CC(C)(C)n1nc2c(c1NC(=O)COc1ccc3ccccc3c1)CS(=O)(=O)C2,-26
13,Cc1ccc(C(=O)Nc2ccccc2-c2ccccc2)o1,6.14
14,CCOc1ccc(Oc2c(/C=N/NC(C)=O)c(C)nn2-c2ccccc2)cc1,8.88
15,CCOc1cc2[nH]c(=O)n(CCC(=O)NCCc3ccc(OC)c(OC)c3)c(=O)c2cc1OCC,13.9
16,O=c1oc2ccccc2c(O)c1C=Nc1cccnc1,10.5
17,COc1cccc(-c2ccc(NC(=O)C3CCCN(Cc4cnn(C)c4C)C3)cc2)c1 (centres unmarked),10.9
18,Cc1ccc(Nc2nc(N)nc(COC(=O)C3=COCCO3)n2)cc1,9.68
19,Cc1cc(C)n2nc(C(=O)N3CCN(c4ccc([N+](=O)[O-])cc4)CC3)nc2n1,-77.6
20,Cc1cc(NS(=O)(=O)c2ccc(NC(=O)CCSc3ccc(F)cc3)cc2)nc(C)n1,11.3
21,CCOC(=O)c1cc(S(=O)(=O)N(C)Cc2ccccc2)cn1C,8.44
22,CC1(C(=O)NCCN2CCOCC2)C=CC2(CCCCC2)N1C(=O)c1ccccc1 (centres unmarked),12.7
23,CN(c1cccc(NS(=O)(=O)c2cccs2)c1)S(C)(=O)=O,19.2

row,Compound,"hERG current change (%, negative = inhibition) at 1uM [%]"
1,CC(=O)NC1C(OCCOc2ccc(Cl)cc2Cl)OC(COC(C)=O)C(OC(C)=O)C1OC(C)=O (centres unmarked),-7.85
2,O=C(NC1CC2CCCC(C1)N2C(=O)Nc1ccc(F)cc1)c1ccccc1 (centres unmarked),2.84
3,COc1ccc(CCNC(=O)CSc2nc(O)c(CC(C)C)c(=O)[nH]2)cc1OC,2.77
4,CC1CCN(Cc2c(C(=O)N/N=C/c3ccc(C(C)(C)C)cc3)nnn2-c2nonc2N)CC1,19.3
5,N#Cc1nc(-c2ccco2)oc1NCCN1CCOCC1,8.01
6,COc1cccc(C(=O)CSc2nc3ccccc3n2CC(=O)N(C(C)C)C(C)C)c1,3.26
7,CCS(=O)(=O)/N=C(\N)c1ccccc1,-0.633
8,CCOC(=O)CC(=O)Nc1ccn[nH]1,14.4
9,O=c1cc(-c2ccccc2)[nH]n2cnnc12,9.09
10,Brc1ccc(OCCCCN2CCCCC2)cc1,-11.6
11,c1ccc2c(c1)c1ccccc1n1c(-c3ccc4c(c3)OCO4)nnc21,9.56
12,CCCCn1c(N)c(N(CCOC)C(=O)CN(C)S(=O)(=O)c2ccc(C)cc2)c(=O)[nH]c1=O,14.3
13,COc1cccc(C(=O)Nn2c(-c3cccs3)nc3ccccc3c2=O)c1OC,13.8
14,O=c1cc(CN2CCN(c3ccccc3F)CC2)c2cc3c(cc2o1)CCCC3,11.5
15,COC(=O)c1ccccc1NC(=O)COC(=O)CSc1nnc(N)s1,11.9
16,O=C(COC(=O)C1CC1)Nc1nc(-c2ccc(F)c(F)c2)cs1,16.8
17,CCOC(=O)CC(=O)CSc1ncnc2c1nnn2-c1ccc(OC)cc1,-0.234
18,O=C(CCC(=O)Nc1ccccc1)N/N=C/C=C/c1ccccc1,23.9
19,COC(=O)c1c(C)nc(C)c(C(=O)OC)c1-c1ccc(OC)cc1,13.4
20,Cc1ccc(CN2CCN(CC(=O)N/N=C/c3ccc(C)o3)CC2)cc1,-25.3
